From the supplement of paper PMC10338343
± gives the standard deviation. This is a selection; strong and weak results do not stand in their true shares.

tested on: MIWI (PIWIL1) piRISC loaded with L1MC piRNA (30 nt); experiment: pre-steady-state target cleavage rate (min^-1); MIWI and MILI are mouse PIWI proteins and EfPiwi is from a freshwater sponge; tags in brackets are library labels; higher = faster piRNA-guided slicing of the target; conditions: guide: L1MC piRNA 5'p-UAACUAAAUACUAUGCAAGCUGUAGGUCCU; auxiliary factor: 500 nM mouse GTSF1
How it was run: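 Cleave-'n-Seq used a transcribed, DNA-blocked target RNA library at 0.1 nM and active affinity-purified piRISC with one synthetic guide at 1 nM, with or without 500 nM GTSF1 partner protein, in HEPES–potassium acetate buffer at 33 °C for 0–8 or 0–960 min. Uncleaved targets were sequenced and normalised to depth and to weakly complementary targets, and three trials were pooled with k3 capped at 0.0001 min^-1. The pre-steady-state cleavage rate was estimated by a burst-and-steady-state fit.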

Sequence | pre-steady-state target cleavage rate
UCCUGGAUGAGCUUGCAUAGUAUCUUAGUUA | 0.497 ± 0.038
UCGACCUACAGCUUGCAUAGUAUUUAGUGA | 0.887 ± 0.04
UCGACCUACAGCUAGCAUAGUAUUUACUUA | 0.51 ± 0.027
UCCUCCUAGUGCUUGCAUAGUAUUUACAAA | 0.101 ± 0.019
UGGACCUACAGCUUGCACAGUAUUUAGUUA | 0.969 ± 0.036
UCCUGGAUCAGCUUGCUUAGAAUUUAGUUA | 0.0591 ± 0.0074
AGGAGCUAGAGCUUGCAUAGUAUUUAGUUA | 0.922 ± 0.049
UCCUCCUACAGCUUGCAUAGUAGUUUAGUUA | 0.443 ± 0.021
UCGACCUACAGCUUGGAUUGUAUUUAGUUA | 0.681 ± 0.025
AGGUCCUACAGCUUGCAUAGUAUAUAGUUA | 0.548 ± 0.042
UCCUGGAUGAGCUUGCAUAGUAUUUAAGUUA | 0.505 ± 0.049
UCCUGGUACAGCUUGCAUAGUAUUUAGUA | 0.388 ± 0.04
UCCUGCUACAGCUUGCAAUCUAUUUAGUUA | 0.199 ± 0.024
UCGACCUACAGCUUGCAUACUAUUAAGUUA | 0.178 ± 0.018
UCCACCUACAGCUUGCAUAGUAUUUAGUUC [g2:g27:cont:t1C] | 0.832 ± 0.031
AGGACCUACAGCUUGCAUAGUUAAUAGUAA | 0.309 ± 0.083
UCCACCUACAGCUUCCUUAGUAUUUAGUUA | 0.343 ± 0.043
UCGUACCUACAGCUUGCAUAGUAUUUAGUUA | 0.909 ± 0.034
UGGACCUACAGCUUGCAAACUAUUUAGUUA | 0.345 ± 0.024
UCCUGGAACACCUUGGAUAGUAUUUAGUUA | 0.286 ± 0.038

Sequence | pre-steady-state target cleavage rate
AGGACCUACAGCUUGCAUAGUAUUUUCAAA [g6:g30:cont:t1A] | 0.39 ± 0.05
UCCUGGAUCAGCUUGCAAUCUAUUUAGUUA | 0.0129 ± 0.0034
UCCUGGAUGUCCUUGCAUAGUAUUUACGUUA | 0.0514 ± 0.0098
UCGUGGUACAGCUUGCAUAGUAUUUAGAAA | 0.305 ± 0.029
UCCUGCUACAGCUGUGCAUAGUAUUUAGUUA | 0.751 ± 0.061
UCCUGGUACAGCUUGCAUAGUAUAUAGUUA | 0.599 ± 0.07
UGCGACCUACAGCUUGCAUAGUAUUUAGUUA | 1.41 ± 0.057
UCGACCAACAGCUUGCUUAGUAUUUAGUUA | 1.47 ± 0.05
UCGACCUACAGCUUGCAUAGUAUUGUAGUUA | 0.359 ± 0.042
UCCUGGAUGUGCUUGAAUAGUAUUUAGUUA | 0.276 ± 0.02
UCCUGCUACACCUUGCAUAGUAUUUAGUUA | 0.706 ± 0.057
UCCACCUACAGCUUGCAUAGUAUUUACUUA | 0.378 ± 0.044
UCGACCUACACGUUGCAUAGUAUUUAGUUA | 1.18 ± 0.036
UCCUGGUACAGCUUGCAUAGUAGUUAGUUA | 0.433 ± 0.051
GGGACCUACAGCUUGCAUAGUAUUUAGUUA | 1.32 ± 0.097
UCCACCUACAGCUUGCAUAGUUUUUAGUUA | 0.342 ± 0.025
UGGACCUACAGGUUGCAUAGUAUUUAGUAA | 0.949 ± 0.078
UCCUGGAACAGCUUGCAUAGUAUUUACAAA | 0.357 ± 0.05
UCCUGGAUGUCGAACGUUAGUUUAUAGUUA | < 0.0001
UCGACCUACAGCUUGCAUAGUAAAUAGUUA | 0.749 ± 0.046

same assay, conditions: guide: L1MC piRNA 5'p-UAACUAAAUACUAUGCAAGCUGUAGGUCCU; auxiliary factor: none (no GTSF1)

Sequence | pre-steady-state target cleavage rate
UCCUGGAUGAGCUUGCAUAGUAUCUUAGUUA | 0.0202 ± 0.007
UCGACCUACAGCUUGCAUAGUAUUUAGUGA | 0.0905 ± 0.019
UCGACCUACAGCUAGCAUAGUAUUUACUUA | 0.0177 ± 0.0043
UCCUCCUAGUGCUUGCAUAGUAUUUACAAA | 0.00215 ± 0.0017
UGGACCUACAGCUUGCACAGUAUUUAGUUA | 0.0507 ± 0.0094
UCCUGGAUCAGCUUGCUUAGAAUUUAGUUA | 0.00983 ± 0.0038
AGGAGCUAGAGCUUGCAUAGUAUUUAGUUA | 0.0536 ± 0.0099
UCCUCCUACAGCUUGCAUAGUAGUUUAGUUA | 0.00927 ± 0.0027
UCGACCUACAGCUUGGAUUGUAUUUAGUUA | 0.0143 ± 0.0034
AGGUCCUACAGCUUGCAUAGUAUAUAGUUA | 0.0347 ± 0.0077
UCCUGGAUGAGCUUGCAUAGUAUUUAAGUUA | 0.0339 ± 0.012
UCCUGGUACAGCUUGCAUAGUAUUUAGUA | 0.0073 ± 0.002
UCCUGCUACAGCUUGCAAUCUAUUUAGUUA | 0.00438 ± 0.0025
UCGACCUACAGCUUGCAUACUAUUAAGUUA | 0.0118 ± 0.0021
UCCACCUACAGCUUGCAUAGUAUUUAGUUC [g2:g27:cont:t1C] | 0.0745 ± 0.014
AGGACCUACAGCUUGCAUAGUUAAUAGUAA | 0.00412 ± 0.0029
UCCACCUACAGCUUCCUUAGUAUUUAGUUA | 0.00162 ± 0.0016
UCGUACCUACAGCUUGCAUAGUAUUUAGUUA | 0.0778 ± 0.016
UGGACCUACAGCUUGCAAACUAUUUAGUUA | 0.00874 ± 0.0027
UCCUGGAACACCUUGGAUAGUAUUUAGUUA | 0.00651 ± 0.0022

Sequence | pre-steady-state target cleavage rate
AGGACCUACAGCUUGCAUAGUAUUUUCAAA [g6:g30:cont:t1A] | 0.00572 ± 0.0041
UCCUGGAUCAGCUUGCAAUCUAUUUAGUUA | 0.00389 ± 0.0025
UCCUGGAUGUCCUUGCAUAGUAUUUACGUUA | 0.00979 ± 0.0029
UCGUGGUACAGCUUGCAUAGUAUUUAGAAA | 0.00755 ± 0.0023
UCCUGCUACAGCUGUGCAUAGUAUUUAGUUA | 0.0113 ± 0.0029
UCCUGGUACAGCUUGCAUAGUAUAUAGUUA | 0.0466 ± 0.011
UGCGACCUACAGCUUGCAUAGUAUUUAGUUA | 0.0975 ± 0.02
UCGACCAACAGCUUGCUUAGUAUUUAGUUA | 0.0416 ± 0.0081
UCGACCUACAGCUUGCAUAGUAUUGUAGUUA | 0.0275 ± 0.0055
UCCUGGAUGUGCUUGAAUAGUAUUUAGUUA | 0.0159 ± 0.004
UCCUGCUACACCUUGCAUAGUAUUUAGUUA | 0.0371 ± 0.0073
UCCACCUACAGCUUGCAUAGUAUUUACUUA | 0.0369 ± 0.0085
UCGACCUACACGUUGCAUAGUAUUUAGUUA | 0.0225 ± 0.0036
UCCUGGUACAGCUUGCAUAGUAGUUAGUUA | 0.0224 ± 0.0045
GGGACCUACAGCUUGCAUAGUAUUUAGUUA | 0.113 ± 0.025
UCCACCUACAGCUUGCAUAGUUUUUAGUUA | 0.0227 ± 0.0043
UGGACCUACAGGUUGCAUAGUAUUUAGUAA | 0.0304 ± 0.0059
UCCUGGAACAGCUUGCAUAGUAUUUACAAA | 0.00404 ± 0.0025
UCCUGGAUGUCGAACGUUAGUUUAUAGUUA | < 0.0001
UCGACCUACAGCUUGCAUAGUAAAUAGUUA | 0.00874 ± 0.0022
